Among all 350,000 compounds or so, about 31,000 (8.9%) were called active. Inconclusive means that the source gave no clear call. Such entries were picked first, then a sample of the others. Calls follow the shape of the dose curve; as a rule, active = well fitted inhibition curve with a large enough effect; inconclusive = small, poorly fitted or top-dose-only effect; inactive = no such curve, though single readings can be large or run the other way. Potencies beside an inconclusive call are fits to weak or partial responses and may not hold up.
What follows are molecules tested against Histone-lysine N-methyltransferase EHMT2 (Homo sapiens) (UniProt Q96KQ7) (assay: qHTS Assay for Inhibitors of Histone Lysine Methyltransferase G9a). Conditions: G9a H3K9 monomethylation, AlphaScreen, 2 h; activity, negative = inhibition: at 59 µM (top of the series) unless noted.
Chain of UniProt Q96KQ7 (Q96KQ7 whole entry, looked up): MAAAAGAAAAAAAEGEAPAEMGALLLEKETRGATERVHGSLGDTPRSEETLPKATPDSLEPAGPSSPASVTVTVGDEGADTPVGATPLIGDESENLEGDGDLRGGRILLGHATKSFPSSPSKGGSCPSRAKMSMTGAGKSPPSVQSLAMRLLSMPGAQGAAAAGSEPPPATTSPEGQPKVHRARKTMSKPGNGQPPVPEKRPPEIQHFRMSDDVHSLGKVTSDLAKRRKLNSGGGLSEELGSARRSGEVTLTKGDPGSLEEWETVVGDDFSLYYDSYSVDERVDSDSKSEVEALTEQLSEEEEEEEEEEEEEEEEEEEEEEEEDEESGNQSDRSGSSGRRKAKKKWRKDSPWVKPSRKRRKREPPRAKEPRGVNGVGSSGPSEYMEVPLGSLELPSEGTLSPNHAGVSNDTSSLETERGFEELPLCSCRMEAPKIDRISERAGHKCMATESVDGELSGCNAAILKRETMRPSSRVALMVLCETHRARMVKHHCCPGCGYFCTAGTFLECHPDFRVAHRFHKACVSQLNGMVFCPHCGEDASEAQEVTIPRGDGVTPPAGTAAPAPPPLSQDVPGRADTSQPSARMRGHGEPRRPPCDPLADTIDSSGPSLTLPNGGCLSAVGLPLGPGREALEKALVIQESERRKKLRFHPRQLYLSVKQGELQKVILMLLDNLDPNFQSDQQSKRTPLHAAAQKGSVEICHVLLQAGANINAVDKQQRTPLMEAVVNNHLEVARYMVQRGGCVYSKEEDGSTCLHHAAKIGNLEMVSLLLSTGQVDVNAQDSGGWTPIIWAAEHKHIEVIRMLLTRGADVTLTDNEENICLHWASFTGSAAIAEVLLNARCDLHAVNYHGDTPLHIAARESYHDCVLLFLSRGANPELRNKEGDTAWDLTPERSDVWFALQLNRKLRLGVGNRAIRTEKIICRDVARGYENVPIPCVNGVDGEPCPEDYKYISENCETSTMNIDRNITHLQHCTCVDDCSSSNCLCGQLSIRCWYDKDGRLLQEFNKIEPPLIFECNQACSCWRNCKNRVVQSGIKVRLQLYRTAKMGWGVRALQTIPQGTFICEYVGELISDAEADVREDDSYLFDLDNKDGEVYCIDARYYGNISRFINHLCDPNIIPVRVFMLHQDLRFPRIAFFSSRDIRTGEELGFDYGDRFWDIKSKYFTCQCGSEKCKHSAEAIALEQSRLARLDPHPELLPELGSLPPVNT
Method in brief: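 Compounds were preincubated with 20 nM G9a for 15 min, after which biotinylated H3K9 peptide (500 nM) and SAM (20 uM) started a 2 h room-temperature reaction. Monomethylated product was quantified by antibody-based AlphaScreen chemiluminescence.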
`c1cn2cc(CN3CCOCC3)nc2s1` was tested, and the “activity, negative = inhibition” value was inactive: -42.5%.
`N=c1ncn(Cc2ccccc2)c2nc(SCCOc3ccccc3)[nH]c12` was tested, and the Potency was active: 79.4 µM.
In the case of `Cc1ccc(C(=O)NC(=S)Nc2ccc(N3CCOCC3)cc2)cc1`, the Potency is reported as active: 7.94 µM.
In the case of `N=c1n(CCO)c2ccccc2n1Cc1ccc(Cl)cc1`, the Potency is reported as inconclusive: 20 µM [inhibitor, single point].
For `COc1ccc(Cc2nnc(Cl)c3ccccc23)cc1OC`, the Potency was active: 50.1 µM.
`C/C(=N\NC(=O)c1ccc(=O)[nH]n1)c1cccnc1` was tested, and the Potency was inconclusive: 17.8 µM [inhibitor, partial curve, poor fit].
With `O=C(NC1CCN(Cc2nnnn2CCc2ccccc2)CC1)c1ccccc1F` the Potency was inconclusive: 50.1 µM [inhibitor, partial curve].
`CC(C)(C)c1ccccc1OCC(=O)NCc1ccccc1` was tested, and the activity, negative = inhibition was inactive: -4.89% [at 0.501 µM].
In the case of `CC(=O)C(N=Nc1ccccc1)(Sc1nnc(-c2ccccc2)n1-c1ccccc1)C(C)=O`, the Potency is reported as inconclusive: 39.8 µM [inhibitor, single point].
`CCCCCCn1nc(C(=O)N(CCOC)c2c(N)n(CCCC)c(=O)[nH]c2=O)c2ccccc2c1=O` was tested, and the activity, negative = inhibition was inactive: -38.8% [at 0.501 µM].
For `Fc1ccc(CNc2ncnc3cc(Cl)ccc23)cc1`, the “activity, negative = inhibition” value was inactive: 1.74% [at 102 µM].
`CCOC(=O)Cc1cnc(NC(=O)CSc2nc(N)cc(=O)[nH]2)s1` was tested, and the “activity, negative = inhibition” value was inactive: 6.3% [at 102 µM].
For `Clc1c(OCCCn2ccnc2)ccc2ccccc12`, the Potency was active: 79.4 µM.
For `CCN(CC)CCNC(=O)Cn1ncc2c3ccccc3n(Cc3ccc(Cl)cc3)c2c1=O`, the “activity, negative = inhibition” value was inactive: 12%.
With `COc1ccc(C2Oc3ccccc3C3=C2C(c2cccs2)n2ncnc2N3)cc1` (stereo unspecified) the Potency was inconclusive: 25.1 µM [inhibitor, partial curve, poor fit].
With `CCc1ccc(CN2CCC(CO)(CC3CCCCO3)CC2)o1` (stereo unspecified) the Potency was inconclusive: 0.282 µM [inhibitor, partial curve, poor fit].
For `OCC1(Cc2ccccc2)CCCN(C2CCCC2)C1` (stereo unspecified), the Potency was inconclusive: 79.4 µM [inhibitor, partial curve, poor fit].
For `COc1cccc(OCc2cc(C(=O)NCc3cnc4ccccn34)no2)c1`, the “activity, negative = inhibition” value was inactive: 9.48% [at 102 µM].
For `CCC(CC)C(=O)Nc1ccc2nc(SCC(=O)N3CCCC3)sc2c1`, the “activity, negative = inhibition” value was inactive: -29.8%.
`CCc1cccc(C)c1NC(=O)c1cc(S(=O)(=O)N(Cc2ccc(C(=O)OC)cc2)Cc2ccc(OC)c(OC)c2)ccc1F` was tested, and the “activity, negative = inhibition” value was inactive: 6.54%.
In the case of `Cc1ccc(CN2C(=O)C[C@@H](NS(=O)(=O)c3ccc4ccccc4c3)C/C=C\C2c2ccc(C)cc2)cc1` (stereo partly specified), the Potency is reported as active: 6.31 µM.
With `COc1ccccc1NC(=S)NC(=O)/C=C/c1cccs1` the Potency was active: 44.7 µM.
For `Cn1c(CNC(=O)Cc2ccc3c(c2)OCO3)nnc1SCc1ccccc1`, the Potency was inconclusive: 22.4 µM [inhibitor, single point].
With `Nc1c(S(=O)(=O)O)cc(NC(=O)c2ccccc2)c2c1C(=O)c1ccccc1C2=O` the activity, negative = inhibition was inconclusive: -64.2% [inhibitor] [at 2.33 µM].
With `CCOc1cccc(C(=O)c2ccc(O)c(O)c2O)c1` the activity, negative = inhibition was inconclusive: -56.9% [inhibitor] [at 2.33 µM].
`Cc1nc(N)sc1-c1csc(Nc2cccc(O)c2)n1` was tested, and the Potency was active: 44.7 µM.
For `Cc1ccc2c(c1)c1c(c(=O)n(-c3cccc(Cl)c3)c(=O)n1CC(=O)NCC1CCCO1)n2C` (stereo unspecified), the Potency was inconclusive: 5.01 µM [inhibitor, single point].
In the case of `COc1ccc(NC(=O)[C@H]2O[C@@H]3OC(C)(C)O[C@@H]3[C@H]3OC(C)(C)O[C@H]32)c(OC)c1`, the “activity, negative = inhibition” value is reported as inactive: -2.05%.
`C/C(=N\NC(=O)c1nnn(-c2nonc2N)c1CN1CCC(C)CC1)c1cccc(Br)c1` was tested, and the “activity, negative = inhibition” value was inactive: -22.7% [at 102 µM].
For `Cc1cc(C)c(S(=O)(=O)c2ccccc2)c(OC(=O)c2c(F)cccc2F)n1`, the Potency was inconclusive: 89.1 µM [inhibitor, partial curve, poor fit].
`CC1(C2(O)CC(c3ccccc3)ON2)CCCCC1` (stereo unspecified) was tested, and the Potency was active: 39.8 µM.
`C#CCOCCOCCOCCNc1nc(N2CCN(C(=O)[C@H](CCCCN)n3cc(CCCC)nn3)CC2)nc(N2CCN(C(=O)[C@H](Cc3ccc(O)cc3)n3cc(CCO)nn3)CC2)n1` was tested, and the Potency was active: 39.8 µM.
For `Cc1ccc2nc(-c3cccs3)c(Nc3c(C)cccc3C)n2c1`, the “activity, negative = inhibition” value was inactive: -19.9%.
For `CN(C)c1ccc(NC(=O)CN2CCc3ccccc3C2)cc1`, the Potency was active: 12.6 µM.
`CN(C)c1ccc(/C=C/c2nc(-c3ccccc3O)n(-c3ccccc3)n2)cc1` was tested, and the Potency was inconclusive: 39.8 µM [inhibitor, single point].
In the case of `COc1ccc(C)cc1NC(=O)C(Sc1nnc(-c2ccncc2)n1-c1ccc(Cl)cc1)c1ccccc1` (stereo unspecified), the Potency is reported as inconclusive: 20 µM [inhibitor, single point].

Reference: PubChem BioAssay AID504332 (National Center for Advancing Translational Sciences (NCATS), 2011)
% is scaled to controls: 0 for no effect and ±100 for the full control effect; potency is read from the fitted curve at half-maximal effect; tags tell the direction and shape of the fitted curve.
Also: nearly all actives have a fitted effect of over 75% in size.
